In all, about 45,000 compounds went through this assay and about 200 (0.44%) were called active. Inconclusive results (about 7%) are left out. Calls follow the shape of the dose curve; as a rule, active = well fitted activation curve with a large enough effect; inconclusive = small, poorly fitted or top-dose-only effect; inactive = no such curve, though single readings can be large or run the other way. Some of the results follow.
test: qHTS of TDP-43 Inhibitors: NCGC Sytravon Library Screen; conditions: yeast TDP-43 toxicity rescue, BacTiter-Glo growth, 24 h; series mostly up to 46.1 µM; growth rescue (activation): at the top concentration; also: 0% is about no effect; nearly all actives have a fitted effect of over 55% in size
Procedure, shortened: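 TDP-43-expressing yeast, pregrown in raffinose, seeded at OD600 0.02 in galactose medium with compound for 24 hr at 30 deg C. Growth read by BacTiter-Glo luminescence, so rescue of toxicity appears as activation.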

SMILES	growth rescue (activation)
COCCN(C(=S)Nc1cccc(OC)c1)C1CCN(C(C)=O)CC1	inactive: 0.0992%
O=C(/C=C\c1ccc(-c2cccc([N+](=O)[O-])c2)o1)N1CCOCC1	inactive: 22.6%
O=C(c1ccc(Cl)cc1)N(Cc1cccs1)C1CCS(=O)(=O)C1 (stereo not given)	inactive: 6.46%
CCCCNC(C(=O)Nc1ccc([N+](=O)[O-])cc1Br)c1ccccc1 (stereo not given)	inactive: 0.992%
CC(NC(=O)/C(C#N)=C/c1ccc(C(=O)O)cc1)c1ccccc1 (stereo not given)	inactive: 1.23%
Cc1ccc(NC(=S)N2CCCC(O)C2)cc1 (stereo not given)	inactive: -0.129%
O=C(NC1CCCCCCC1)C1c2ccccc2C(=O)N1Cc1cccs1 (stereo not given)	inactive: -14.6%
COc1ccc(N2CCN(c3nc4ccccn4c(=O)c3C=O)CC2)cc1	inactive: 20.7%
COC(=O)c1sc(NC(=O)CSc2nnc(Cn3nnc4ccccc43)n2C)nc1C	inactive: 5.24%
CCCSc1ncc(Cl)c(C(=O)Nc2sc3c(c2C(=O)NCCOC)CCCC3)n1	inactive: 9.44%
CC(C)(C)c1ccc2c(c1)OC(C(=O)N/N=C/c1ccc([N+](=O)[O-])o1)CO2 (stereo not given)	inactive: 14.9%
COc1ccc(NC(=O)CC2(Cc3ccccc3)CCOC(C)(C)C2)cc1 (stereo not given)	inactive: 4.21%
Cc1cc(C(=O)N/N=C/c2cc(Br)cc([N+](=O)[O-])c2O)c2ccccc2n1	inactive: 14.3%
C/C(=N\NC(=O)CCn1nnc2ccccc21)c1cccs1	inactive: 2.47%
CC(=O)Nc1ccc(NC(=O)COC(=O)c2ccc(S(=O)(=O)NCc3ccco3)cc2)cc1	inactive: 1.33%
Cc1cc(NC(=O)COC(=O)[C@H](Cc2ccccc2)NC(=O)c2ccco2)no1	inactive: -8.81%
Cc1ccc(CNS(=O)(=O)c2ccc3c(c2)n(C)c(=O)n3C)cc1	inactive: -2.3%
COc1ccc(CNC(=O)CN(C)Cc2ccc(SC)cc2)cc1	inactive: 1.97%
CC(=O)c1c(C)n(-c2ccc(Cl)cc2)c2ccc(O)cc12	inactive: 6.58%
NC(=O)C1(N2CCCCC2)CCN(C(=S)NC2CCCC2)CC1	inactive: -12.1%
CCOc1ccc(C=NNc2ccc(S(=O)(=O)Nc3ccccc3C(=O)O)cc2[N+](=O)[O-])cc1OC	inactive: 12%
O=C(Cn1nnc(-c2ccc(F)cc2)n1)OCC(=O)c1ccccc1	inactive: 4.12%
CCN(c1ccccc1)S(=O)(=O)c1cccc(C(=O)NCC(c2ccco2)N2CCCCC2)c1 (stereo not given)	inactive: -9.94%
Nc1[nH]n(-c2ccccc2)c(=O)c1N=Nc1ccccc1	inactive: -1.13%
CC(C)(C)c1ccc(C(=O)N2CCC2(C)C(=O)NS(=O)(=O)c2ccc(C#N)cc2)cc1 (stereo not given)	inactive: -20.6%
OC(c1ccccc1)c1nc(/C=C/c2ccc(C(F)(F)F)cc2)cs1 (stereo not given)	inactive: 17.4%
CC(=O)N1CCc2cc(N=NC3=C(O)CCCC3=O)ccc21	inactive: 1.95%

SMILES	growth rescue (activation)
S=C(Nc1cccc(Cl)c1)N1CCN(Cc2ccccc2)CC1	inactive: 8.27%
Cc1nc(NCCc2ccc(O)cc2)c2nnn(Cc3ccccc3)c2n1	inactive: 14.9%
CN1CCN(C(=O)/C(=C\c2cccs2)NC(=O)c2ccco2)CC1	inactive: 4.93%
CC(C)c1ccc(S(=O)(=O)/N=C2/C=C(Sc3ncn[nH]3)C(=O)c3ccccc32)cc1	inactive: -46.7%
CCOC(=O)c1c(NCC2CCCO2)c2ccccc2[nH]c1=O (stereo not given)	inactive: 9.34%
Cc1cccc(C(C(=O)NC2CCCCC2)N(C(=O)c2csnn2)C2CC2)c1 (stereo not given)	inactive: -9.71%
COc1ccccc1N1CCN(C(=O)c2cccc(C(=O)N3CCN(c4ccccc4OC)CC3)c2)CC1	inactive: 3.96%
O=C(NCc1cccs1)C1CCCN1C(=O)Nc1ccccc1[N+](=O)[O-] (stereo not given)	inactive: -0.254%
Cc1ccc(CN2C(=O)CCC2C(=O)N2CCN(c3ccc(F)cc3)CC2)cc1 (stereo not given)	inactive: 7.52%
COc1ccccc1-c1cc(C(F)(F)F)c(C#N)c(=O)[nH]1	inactive: -2.22%
CCOC(=O)COc1ccc2c(C#N)c3ccccn3c2c1	inactive: 6.61%
Cc1ccc(S(=O)(=O)N2CCCCC2)cc1NC(=O)COC(=O)c1cc[n+]([O-])cc1	inactive: 10.1%
C=CCc1cccc(/C=N/NC(=O)CCC(=O)Nc2ccc(F)cc2)c1O	inactive: -9.73%
COc1ccc(C=Nc2ccc3[nH]ncc3c2)c(O)c1	inactive: -5.83%
COc1ccc(NC(=O)Cc2nnc(SCC(=O)c3ccc(F)cc3)n2C)cc1	inactive: 7.61%
COC(=O)/C(=C/c1ccccc1)NC(=O)c1ccco1	inactive: -0.436%
COc1cc(/C=C(/Sc2nnc(-c3ccc(F)cc3)o2)C(=O)O)ccc1OC(F)F	inactive: 0.28%
CN(C)c1ccc(CN2CCC(C(N)=O)CC2)cc1	inactive: -5.6%
Cc1nc(N2CCN(c3ccccc3)CC2)[nH]c(=O)c1CCC(C)C	inactive: -12.7%
COCCCn1c(SCC(=O)N2CCOCC2)nc2ccccc2c1=O	inactive: -8.39%
c1ccc(CN2CCN(c3nc4ccccc4c4ccccc34)CC2)cc1	inactive: -9.83%
O=C(NCCCN1CCC(Cc2ccccc2)CC1)C1CCN(S(=O)(=O)N2CCC3(CC2)OCCO3)CC1	inactive: 0.792%
OCCN(Cc1ccccc1)C(=S)NC1CCCCC1	inactive: 16.7%
Cc1ccc(C2c3c(oc4ccccc4c3=O)C(=O)N2c2ccc(C)cn2)cc1 (stereo not given)	inactive: 12.1%
CCC(=O)Nc1nc2nc(-c3ccccc3)cc(=O)n2[nH]1	inactive: 19%
CC(CNC(=O)c1ccc2c(c1)OCO2)c1ccc([N+](=O)[O-])cc1 (stereo not given)	inactive: 7.01%
CCCNC(=O)C1(C)CCN(C(=O)c2cc(C)n(C(C)(C)C)n2)C1 (stereo not given)	inactive: 1.02%

SMILES	growth rescue (activation)
CCCn1c(-c2ccc(C(=O)OC)cc2)nc2c1c(=O)[nH]c(=O)n2Cc1ccccc1	inactive: 8.37%
Cc1ccc(COc2ccc(CNCCCN3CCCCCC3=O)cc2)cc1	inactive: -3.24%
Nc1nc(NCCCN2CCOCC2)nc(Nc2cccc(Cl)c2)c1[N+](=O)[O-]	inactive: -12.4%
CC1CCCC(C)N1NC(=S)Nc1ccc(OC(F)F)cc1 (stereo not given)	inactive: 14.1%
O=S(=O)(c1cccc2nsnc12)N1CCNCC1	inactive: 15.2%
COc1ccc(NS(=O)(=O)c2ccc(NC(=O)Cc3cccs3)cc2)cc1	inactive: -14.3%
COc1ccc(CCN(C)S(=O)(=O)c2ccc(Cl)nc2)cc1OC	inactive: 0.513%
Cc1ccc2c(C)cc[n+](CCCS(=O)(=O)[O-])c2c1	inactive: 6.58%
CCS(=O)(=O)Nc1cccc(C2=NN(C(C)=O)C(c3cccs3)C2)c1 (stereo not given)	inactive: 1.32%
COCCN=c1scc(-c2ccc3c(c2)NC(=O)CO3)n1/N=C(\C)c1ccc(O)cc1	inactive: 2.57%
COc1ccc(/C=C/C(=O)C2(O)CCCCC2)cc1	inactive: -16.3%
COc1ccc(-c2noc(CSc3nc(N)c(-c4ccccc4)c(=O)[nH]3)n2)cc1OC	inactive: 5.91%
CN(C)C(=O)c1cccn(Cc2cccc(C(F)(F)F)c2)c1=O	inactive: 0.493%
CC(=O)Nc1cccc2c1C(=O)N(c1ccccc1OC(C)=O)C2=O	inactive: -3.55%
Cc1ccc(NC(=O)CSc2nnnn2C2CC2)cc1S(=O)(=O)N1CCOCC1	inactive: 0.439%
COc1cc2ccccc2cc1C(=O)NC(=S)Nc1cccc(C(=O)O)c1	inactive: 4.83%
CCOc1cc(C(=O)Nc2ccc(S(=O)(=O)Nc3nnc(CC)s3)cc2)cc(OCC)c1OCC	inactive: -13.9%
CNC(=S)N/N=C(\C)c1ccc2c(c1)OCCO2	inactive: 40.9%
COc1cc(F)ccc1-c1csc(C(O)c2ccc(F)c(F)c2)n1 (stereo not given)	inactive: -73.3%
N#Cc1cc(C(=O)c2ccccc2OCC(=O)Nc2ccccc2Cl)cn(C2CCCCC2)c1=O	inactive: 5.17%
CCOC(=O)N1CCN(C(=O)C2CCN(CC3CCCCC3)CC2)CC1	inactive: 11.6%
Oc1ccccc1C=NC1CCCCC1N=Cc1ccccc1O (stereo not given)	inactive: 1.52%
CCOC(=O)c1c(C)n(S(=O)(=O)c2ccc(C)cc2C)c2ccc(NS(=O)(=O)c3ccc(C)cc3C)cc12	inactive: -6.22%
O=C(COC(=O)c1ccccc1)Nc1ccc(Cl)cn1	inactive: -14.5%
CC(=O)Nc1ccc(C(=O)OCC(=O)c2cccc([N+](=O)[O-])c2)cc1	inactive: 6.57%
CCCCCOC(=O)C1C(c2ccccc2)C(C(=O)O)C1c1ccccc1 (stereo not given)	inactive: 19.2%
Cc1cc(C(=O)N2CCCC(C(=O)c3cc(F)ccc3F)C2)c(C)o1 (stereo not given)	inactive: 26.7%

SMILES	growth rescue (activation)
Cc1[nH]c2ccccc2c1C(=O)COC(=O)Cn1c(C(F)(F)F)nc2ccccc21	inactive: 8.15%
COc1ccc(CCNC(=O)CCCc2ccccc2)cc1OC	inactive: 8.62%
O=C(NC1C2CC3CC(C2)CC1C3)c1ccc(Br)o1 (stereo not given)	inactive: -19.8%
COc1cc(OC)c(OC)cc1/C=N/NC(=O)c1cnccn1	inactive: 0.0341%
CCCOc1ccc(/C=N/Nc2ccccc2[N+](=O)[O-])c(O)c1	inactive: -2.23%
O=C(CN(C(=O)CCC(=O)Nc1nccs1)c1cccc(F)c1)NCc1ccc2c(c1)OCO2	inactive: -12.8%
CC(=O)N1N=C(C)CC1c1ccc(OCc2ccccc2)cc1 (stereo not given)	inactive: -15.2%
Cc1onc(-c2ccccc2)c1C(=O)N1CCN(S(=O)(=O)c2ccc(Cl)cc2)CC1	inactive: 15.5%
O=C(NCc1ccc(Cl)cc1)c1ccc(COCC(F)(F)F)o1	inactive: 24.7%
COc1ccccc1CCc1nnc(CCC(=O)NC(C)Cn2nc(C)cc2C)o1 (stereo not given)	inactive: 12.5%
NNc1cc(C(=O)O)ccc1Cl	inactive: 14.8%
CCCCN(CCCC)CCCNC(=O)c1ccc2nc(-c3ccccc3NC(C)=O)c(=O)[nH]c2c1	inactive: -4.92%
CNC(=O)NC(=O)C(C)OC(=O)c1ccc(Cl)c(S(=O)(=O)Nc2ccc(F)cc2)c1 (stereo not given)	inactive: 14.7%
CC1(C(=O)O)CCN1C(=O)c1cccc(C(F)(F)F)c1 (stereo not given)	inactive: 5.92%
CCc1ccc2nc(Nc3ccc(OC)cc3OC)c(C#N)cc2c1	inactive: -33.7%
CC(=O)c1cccc(NC(=O)C(C)OC(=O)C2=NNC(=O)CC2)c1 (stereo not given)	inactive: 13.2%
Cc1cc(C)cc(N(CC(=O)NCCSCc2ccco2)S(C)(=O)=O)c1	inactive: -12.8%
O=C(CCc1nc2ccccc2s1)Nc1cccnc1	inactive: -0.572%
Cc1ccc(/C=N/Nc2cn[nH]c(=O)n2)o1	inactive: 13.5%
COc1ccc(NC(=O)c2cc3nc(-c4ccc(Cl)c(Cl)c4)cc(C(F)(F)F)n3n2)c(OC)c1	inactive: 7.77%
CCC(C)NC(=S)NNC(=O)c1ccncc1 (stereo not given)	inactive: -5.21%
COc1ccccc1N(CC(O)CN1CCC(C)CC1)S(=O)(=O)c1ccccc1 (stereo not given)	inactive: 9.29%
CCOC(=O)c1c(C)[nH]c(C)c1C(=O)COC(=O)C1CC(=O)N(CCc2ccccc2)C1 (stereo not given)	inactive: 0.217%
COc1cc(C(=O)N2CCN(C(=O)COc3ccc4ccccc4c3)CC2)cc(OC)c1OC	inactive: 16.3%

— PubChem BioAssay AID1347073 (National Center for Advancing Translational Sciences (NCATS), 2019)
